{"source": "PubChem BioAssay AID588342", "about": "(National Center for Advancing Translational Sciences (NCATS), 2011)", "note": "About 25,000 (6.9%) of roughly 360,000 compounds were called active. Inconclusive results, whose numbers are uncertain, are shown with a selection of clear calls. The call rests on the fitted dose curve; in most records, active means well fitted inhibition curve with a large enough effect; inconclusive means small, poorly fitted or top-dose-only effect; inactive means flat fitted curve, though single readings scatter. Potencies of inconclusive entries are doubtful fits and often do not repeat.", "data": [{"molecular_target": "Luciferin 4-monooxygenase (Photinus pyralis) (UniProt P08659)", "sequence (P08659 whole entry, looked up)": "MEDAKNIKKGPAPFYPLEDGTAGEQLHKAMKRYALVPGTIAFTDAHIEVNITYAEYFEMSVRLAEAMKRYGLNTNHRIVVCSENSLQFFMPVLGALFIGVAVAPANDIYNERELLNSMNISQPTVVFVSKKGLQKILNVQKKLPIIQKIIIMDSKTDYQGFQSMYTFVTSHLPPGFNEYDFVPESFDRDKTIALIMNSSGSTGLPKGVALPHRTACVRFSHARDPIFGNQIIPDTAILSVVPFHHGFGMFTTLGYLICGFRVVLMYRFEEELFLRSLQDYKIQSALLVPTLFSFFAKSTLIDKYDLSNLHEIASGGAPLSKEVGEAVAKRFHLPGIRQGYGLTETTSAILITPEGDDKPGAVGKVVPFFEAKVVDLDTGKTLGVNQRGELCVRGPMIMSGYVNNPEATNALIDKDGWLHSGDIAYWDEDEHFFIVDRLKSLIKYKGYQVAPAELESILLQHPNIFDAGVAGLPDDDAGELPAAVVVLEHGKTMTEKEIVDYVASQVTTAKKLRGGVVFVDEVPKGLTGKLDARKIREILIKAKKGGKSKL", "assay": "qHTS profiling assay for firefly luciferase inhibitor/activator using purifed enzyme and Km concentrations of substrates (counterscreen for miR-21 project); further: nearly all actives have a fitted effect of over 55% in size; further: potency means the concentration at half of the fitted maximal effect; tags describe the fitted curve by direction and shape;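 on activity change, negative = inhibition: plate controls were vehicle for no effect and reference inhibitor for full effect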", "conditions": "purified FLuc, luminescence inhibition; activity change, negative = inhibition: at 57.5 µM (top of the series)", "summary_of_the_method": "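Biochemical qHTS of compounds, final roughly 60 µM downward over six points, against 10 nM purified firefly luciferase using Km concentrations of substrates (10 uM D-luciferin, 10 uM ATP) in Tris acetate pH 7.5 buffer; luminescence output.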", "values": [{"compound": "CCn1nc(C)cc1C(=O)N1CCc2c([nH]c3ccccc23)C1c1cc(F)ccc1F", "note": "(stereo unspecified)", "Potency": "active: 21.3 µM"}, {"compound": "Cc1occc1-c1nnc(SCC(=O)c2ccc(F)cc2)o1", "Potency": "inconclusive: 16.9 µM [inhibitor, partial curve]"}, {"compound": "COc1cc(NC(=O)COc2cc(O)c3c(c2)OC(C)(C)CC3=O)cc(OC)c1", "Potency": "inconclusive: 19 µM [inhibitor, partial curve]"}, {"compound": "COCCNC(=S)N(CCc1c(C)[nH]c2ccccc12)Cc1ccco1", "activity change, negative = inhibition": "inactive: -0.507%"}, {"compound": "Cc1ccc(S(=O)(=O)NCC(=O)Nc2ccc3c(c2)OCCO3)cc1", "activity change, negative = inhibition": "inactive: -1.09%"}, {"compound": "COc1cc(C)ccc1OCCSc1nc2ccc(NC(=O)c3ccco3)cc2s1", "Potency": "inconclusive: 13.5 µM [inhibitor, partial curve, poor fit]"}, {"compound": "CC(=O)c1cccc(NC(=O)c2cc(Cl)sc2Cl)c1", "Potency": "inconclusive: 37.9 µM [inhibitor, partial curve, poor fit]"}, {"compound": "COc1ccc(/C=C2\\SC(=O)N(CCNC(=O)C3CCN(S(=O)(=O)c4cccs4)CC3)C2=O)cc1", "Potency": "inconclusive: 4.26 µM [inhibitor, full curve]"}, {"compound": "CC1CCN(C(=O)c2cc(-c3ccccc3O)on2)CC1", "Potency": "active: 2.69 µM"}, {"compound": "CCCN(C(=O)CSc1nnc(-c2ccoc2C)n1N)C1CCS(=O)(=O)C1", "note": "(stereo unspecified)", "activity change, negative = inhibition": "inactive: 9.83%"}, {"compound": "O=C(CSc1nc2c(c(=O)n1-c1ccc(Cl)cc1)SCC2)NCC1CCCO1", "note": "(stereo unspecified)", "activity change, negative = inhibition": "inactive: 1.77%"}, {"compound": "CN(C)C(CNC(=O)c1ccc(C(F)(F)F)cc1)c1ccco1", "note": "(stereo unspecified)", "Potency": "inconclusive: 26.9 µM [inhibitor, partial curve, poor fit]"}, {"compound": "O=C(Nc1ccc(F)cc1Cl)C1=COCCO1", "Potency": "inconclusive: 37.9 µM [inhibitor, partial curve, poor fit]"}, {"compound": "Cc1c([N+](=O)[O-])c(C(=O)Sc2ccc(Br)cc2)nn1C", "Potency": "active: 16.9 µM"}, {"compound": "O=C(COc1ccc(Cl)cc1Cl)NC(=O)N1CCCCC1", "Potency": "active: 3.38 µM"}, {"compound": "CCOc1ccc(C(=O)NCc2ccc3c(c2)OCO3)cc1", "activity change, negative = inhibition": "inactive: -9.45%"}, {"compound": "Cc1nn(Cc2ccc(Cl)cc2Cl)c(C)c1NC(=O)CCl", "activity change, negative = inhibition": "inactive: -1.99%"}, {"compound": "CCCCCCn1nnc2sc(-c3ccccc3)cc2c1=O", "activity change, negative = inhibition": "inactive: -2.55%"}, {"compound": "COC(=O)c1sc(N)c(C(=O)OC)c1COC(=O)[C@@H](NS(=O)(=O)c1cccc(Cl)c1)C(C)C", "activity change, negative = inhibition": "inactive: 0.0386%"}, {"compound": "COc1ccc(CC(=O)NCc2nnc(SCC(=O)Nc3nccs3)n2C)cc1", "Potency": "inconclusive: 23.9 µM [inhibitor, partial curve]"}, {"compound": "O=C(Oc1cc(-c2ccccc2)no1)c1cccc(C(F)(F)F)c1", "Potency": "inconclusive: 23.9 µM [inhibitor, partial curve, poor fit]"}]}]}
